# Measured values: the supplement of paper PMC8728848
# Some of the results follow.
# B1: CLECb-Precomplexed (Mus musculus), P43025 (protein)
# chain: MAKNGLVLCILVVSLLLDQTDGYPSRMKARKHSKRRVKAKDDDLKSQVEKLWREVNALKEMQALQTVCLRGTKVHKKCYLASEGLKHYHEANEDCISKGGTLVVPRNSDEINALRDYGKRSLPGVNDFWLGINDMVTEGKFLDVHGFAVSFLNWDRAQPSGGKRENCVLFSQSAQGKWSDEACRSSKRYICEFIIPTRTRPLEQKLISEEDLAANDILDYKDDDDKV
# Experiments:
# Assay in all cases: glycan array binding signal (z-score within array); higher = stronger binding
# Conditions in all cases: glycan notation: IUPAC condensed, linker removed
# [1] = biological target: Gal(b1-4)GlcNAc(b1-3)Gal(b1-4)GlcNAc(b1-3)Gal(b1-4)GlcNAc(b1-3)Gal(b1-4)GlcNAc(b1-2)Man(a1-3)[Gal(b1-4)GlcNAc(b1-3)Gal(b1-4)GlcNAc(b1-3)Gal(b1-4)GlcNAc(b1-3)Gal(b1-4)GlcNAc(b1-2)Man(a1-6)]Man(b1-4)GlcNAc(b1-4)[Fuc(a1-6)]GlcNAc
# Outline: (§1)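 The binding signal is a Z-score computed within each array and averaged over linkers. Arrays of the same protein sequence at different concentrations or buffers were also averaged together. Data originate from 3228 arrays in the Consortium for Functional Glycomics database, kept only where the protein sequence was available.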
# [2] = biological target: Gal(b1-4)GlcNAc(b1-3)Gal(b1-4)GlcNAc(b1-3)Gal(b1-4)GlcNAc(b1-3)Gal(b1-4)GlcNAc(b1-2)[Gal(b1-4)GlcNAc(b1-3)Gal(b1-4)GlcNAc(b1-3)Gal(b1-4)GlcNAc(b1-3)Gal(b1-4)GlcNAc(b1-6)]Man(a1-6)[Gal(b1-4)GlcNAc(b1-3)Gal(b1-4)GlcNAc(b1-3)Gal(b1-4)GlcNAc(b1-3)Gal(b1-4)GlcNAc(b1-2)Man(a1-3)]Man(b1-4)GlcNAc(b1-4)[Fuc(a1-6)]GlcNAc
# Outline: as §1
# [3] = biological target: Gal(b1-4)GlcNAc(b1-3)Gal(b1-4)GlcNAc(b1-3)Gal(b1-4)GlcNAc(b1-3)Gal(b1-4)GlcNAc(b1-3)Gal(b1-4)GlcNAc(b1-2)Man(a1-3)[Gal(b1-4)GlcNAc(b1-3)Gal(b1-4)GlcNAc(b1-3)Gal(b1-4)GlcNAc(b1-3)Gal(b1-4)GlcNAc(b1-3)Gal(b1-4)GlcNAc(b1-2)Man(a1-6)]Man(b1-4)GlcNAc(b1-4)GlcNAc
# Outline: as §1
# [4] = biological target: Gal(b1-4)GlcNAc(b1-3)Gal(b1-4)GlcNAc(b1-3)Gal(b1-4)GlcNAc(b1-3)Gal(b1-4)GlcNAc(b1-3)Gal(b1-4)GlcNAc(b1-2)Man(a1-3)[Gal(b1-4)GlcNAc(b1-3)Gal(b1-4)GlcNAc(b1-3)Gal(b1-4)GlcNAc(b1-3)Gal(b1-4)GlcNAc(b1-3)Gal(b1-4)GlcNAc(b1-2)Man(a1-6)]Man(b1-4)GlcNAc(b1-4)[Fuc(a1-6)]GlcNAc
# Outline: as §1
# [5] = biological target: Gal(b1-4)GlcNAc(b1-3)Gal(b1-4)GlcNAc(b1-3)Gal(b1-4)GlcNAc(b1-3)Gal(b1-4)GlcNAc(b1-3)Gal(b1-4)GlcNAc(b1-2)[Gal(b1-4)GlcNAc(b1-3)Gal(b1-4)GlcNAc(b1-3)Gal(b1-4)GlcNAc(b1-3)Gal(b1-4)GlcNAc(b1-3)Gal(b1-4)GlcNAc(b1-6)]Man(a1-6)[Gal(b1-4)GlcNAc(b1-3)Gal(b1-4)GlcNAc(b1-3)Gal(b1-4)GlcNAc(b1-3)Gal(b1-4)GlcNAc(b1-3)Gal(b1-4)GlcNAc(b1-2)Man(a1-3)]Man(b1-4)GlcNAc(b1-4)[Fuc(a1-6)]GlcNAc
# Outline: as §1
# [6] = biological target: Gal(b1-4)GlcNAc(b1-3)Gal(b1-4)GlcNAc(b1-3)Gal(b1-4)GlcNAc(b1-3)Gal(b1-4)GlcNAc(b1-3)Gal(b1-4)GlcNAc(b1-3)Gal(b1-4)GlcNAc(b1-2)Man(a1-3)[Gal(b1-4)GlcNAc(b1-3)Gal(b1-4)GlcNAc(b1-3)Gal(b1-4)GlcNAc(b1-3)Gal(b1-4)GlcNAc(b1-3)Gal(b1-4)GlcNAc(b1-3)Gal(b1-4)GlcNAc(b1-2)Man(a1-6)]Man(b1-4)GlcNAc(b1-4)GlcNAc
# Outline: as §1
# [7] = biological target: Gal(b1-4)GlcNAc(b1-3)Gal(b1-4)GlcNAc(b1-3)GalNAc
# Outline: as §1
# [8] = biological target: Gal(b1-4)GlcNAc(b1-3)Gal(b1-4)GlcNAc(b1-3)[Gal(b1-4)GlcNAc(b1-3)Gal(b1-4)GlcNAc(b1-6)]GalNAc
# Outline: as §1
# [9] = biological target: Gal(b1-4)GlcNAc(b1-3)Gal(b1-4)GlcNAc(b1-6)[Gal(b1-3)]GalNAc
# Outline: as §1
# [10] = biological target: Gal(b1-4)GlcNAc(b1-3)Gal(b1-4)[Fuc(a1-3)]GlcNAc(b1-3)Gal(b1-4)[Fuc(a1-3)]GlcNAc
# Outline: as §1
# [11] = biological target: Gal(b1-4)GlcNAc(b1-3)GalNAc
# Outline: as §1
# [12] = biological target: Gal(b1-4)GlcNAc(b1-3)[Fuc(a1-3)GlcNAc(b1-6)]Gal(b1-4)Glc
# Outline: as §1
# [13] = biological target: Gal(b1-4)GlcNAc(b1-3)[Gal(b1-4)GlcNAc(b1-6)]Gal(b1-4)GlcNAc
# Outline: as §1
# [14] = biological target: Gal(b1-4)GlcNAc(b1-3)[GlcNAc(b1-6)]Gal(b1-4)GlcNAc
# Outline: as §1
# [15] = biological target: Gal(b1-4)GlcNAc(b1-6)Gal(b1-4)GlcNAc
# Outline: as §1
# [16] = biological target: Gal(b1-4)GlcNAc(b1-6)GalNAc
# Outline: as §1
# [17] = biological target: Gal(b1-4)GlcNAc(b1-6)[Gal(b1-3)]GalNAc
# Outline: as §1
# [18] = biological target: Gal(b1-4)GlcNAc(b1-6)[Gal(b1-4)GlcNAc(b1-3)]GalNAc
# Outline: as §1
# Gal(b1-4)GlcNAc6P = biological target: Gal(b1-4)GlcNAc6P
# Outline: as §1
# Gal(b1-6)Gal = biological target: Gal(b1-6)Gal
# Outline: as §1
# Gal3S(b1-3)GalNAc = biological target: Gal3S(b1-3)GalNAc
# Outline: as §1
# Gal3S(b1-3)GlcNAc = biological target: Gal3S(b1-3)GlcNAc
# Outline: as §1
# [19] = biological target: Gal3S(b1-3)[Fuc(a1-4)]GlcNAc
# Outline: as §1
binder,measurement,setting,value
B1,glycan array binding signal (z-score),[1],1.82
same,glycan array binding signal (z-score),[2],1.42
same,glycan array binding signal (z-score),[3],2.1
same,glycan array binding signal (z-score),[4],1.04
same,glycan array binding signal (z-score),[5],11.2
same,glycan array binding signal (z-score),[6],0.92
same,glycan array binding signal (z-score),[7],-0.369
same,glycan array binding signal (z-score),[8],-0.18
same,glycan array binding signal (z-score),[9],0.229
same,glycan array binding signal (z-score),[10],0.033
same,glycan array binding signal (z-score),[11],0.155
same,glycan array binding signal (z-score),[12],-0.148
same,glycan array binding signal (z-score),[13],0.403
same,glycan array binding signal (z-score),[14],0.459
same,glycan array binding signal (z-score),[15],-0.347
same,glycan array binding signal (z-score),[16],-0.104
same,glycan array binding signal (z-score),[17],-0.191
same,glycan array binding signal (z-score),[18],0.15
same,glycan array binding signal (z-score),Gal(b1-4)GlcNAc6P,-0.177
same,glycan array binding signal (z-score),Gal(b1-6)Gal,-0.508
same,glycan array binding signal (z-score),Gal3S(b1-3)GalNAc,-0.161
same,glycan array binding signal (z-score),Gal3S(b1-3)GlcNAc,-0.268
same,glycan array binding signal (z-score),[19],-0.305
